# Measurements published in publication PMC6919601, “Identification of Plasmodium dipeptidyl aminopeptidase allosteric inhibitors by high throughput screening” (PLoS ONE, 2019).
# The whole screen tested about 110,000 compounds, of which about 230 (0.21%) showed an effect of 50% or more. The list shows a part of the results.
# Target: DPAP1 (Plasmodium falciparum, UniProt Q8IIJ9)
# Assay: primary screen, percent inhibition; read by cleavage of a fluorogenic dipeptide substrate; higher = more effect of the substance
# Design: species or system P. falciparum D10 trophozoite lysates; single well
# 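Also: 30 min substrate incubation versus DMSO and 10 µM JCP410 controls.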
# Sequence of DPAP1 (Q8IIJ9 whole entry, looked up): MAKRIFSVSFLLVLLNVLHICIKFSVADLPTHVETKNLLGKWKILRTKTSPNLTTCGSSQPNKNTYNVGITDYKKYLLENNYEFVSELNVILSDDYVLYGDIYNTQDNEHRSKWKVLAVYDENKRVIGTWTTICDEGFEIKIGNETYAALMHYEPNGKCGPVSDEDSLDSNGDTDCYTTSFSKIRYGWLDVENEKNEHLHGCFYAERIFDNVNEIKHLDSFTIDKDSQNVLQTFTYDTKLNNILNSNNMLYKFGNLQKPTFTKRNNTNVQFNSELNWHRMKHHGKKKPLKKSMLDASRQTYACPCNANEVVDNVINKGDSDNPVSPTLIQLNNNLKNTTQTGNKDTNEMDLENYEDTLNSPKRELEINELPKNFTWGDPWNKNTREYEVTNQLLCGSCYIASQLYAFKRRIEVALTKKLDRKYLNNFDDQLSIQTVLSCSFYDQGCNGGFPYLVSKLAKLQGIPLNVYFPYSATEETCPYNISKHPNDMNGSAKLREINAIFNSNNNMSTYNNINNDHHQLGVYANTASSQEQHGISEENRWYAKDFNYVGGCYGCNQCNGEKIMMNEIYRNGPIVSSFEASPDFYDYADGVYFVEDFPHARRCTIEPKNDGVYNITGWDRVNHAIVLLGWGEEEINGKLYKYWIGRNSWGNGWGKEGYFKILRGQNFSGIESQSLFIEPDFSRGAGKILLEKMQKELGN
row,Structure (SMILES),% Inhibition @ 10 uM
1,OC1CCCN(CC(c2ccccc2)c2ccccc2)C1 (centres unmarked),0.0792%
2,Cc1ccc2c(c1)c1c3n2CNCC3CCC1 (centres unmarked),0.0345%
3,CC(C)CC(C(=O)NCC#N)c1cccc(-c2cccc(OC3CCNCC3)c2)c1 (centres unmarked),4.63%
4,O=S1(=O)C=C(c2ccccc2)c2ccccc21,-0.759%
5,CC(C)CS(=O)(=O)C1=NSC2=NC(=O)/C(=C\c3c[nH]c4ccccc34)C(=N)N21,5.06%
6,Cc1ccc(CCN2CC(C(=O)NCCCN3CCOCC3)CC2=O)cc1 (centres unmarked),-5.43%
7,Cc1ccc(NC(=O)CN2C(=O)S/C(=C\c3cccs3)C2=O)cc1,-4.3%
8,CC(=O)c1cccc(NC(=O)C(C)NS(=O)(=O)c2ccc(C)cc2)c1 (centres unmarked),-5.32%
9,Cc1oc(C(=O)O)cc1COc1ccc2c(-c3ccccc3)cc(=O)oc2c1C,-7.47%
10,Cc1ccc2cc3c(N)nn(C(=O)c4cccc(Cl)c4)c3nc2c1,-0.22%
11,COc1ccccc1OC(C)C(=O)N(Cc1ccc(Cl)cc1)C1CCS(=O)(=O)C1 (centres unmarked),0.561%
12,COc1ccc(CSC(C)(C)[C@H](NC(=O)OCc2ccccc2)C(=O)NCC#N)cc1,-1.41%
13,COc1ccc(C(=O)n2c(C)cc(C)c(C#N)c2=O)cc1,3.72%
14,CCOc1ccccc1CNCC1CCCO1 (centres unmarked),0.145%
15,COc1ccccc1C(=O)N1N=C(C(F)F)CC1(O)C(F)F (centres unmarked),-3.05%
16,Cc1oc2ccc(O)cc2c1[N+](=O)[O-],0.847%
17,CCOc1ccc2nc(C)c(C/C=C(/C)Cl)c(S)c2c1,-4%
18,CN(C)CC(O)Cn1c2ccccc2c2ccccc21 (centres unmarked),-1.97%
19,Cc1ccc(OCC(=O)NCCc2ccccc2)cc1,-4.08%
20,c1cnc(N2CCN(Cc3cccc4ccccc34)CC2)nc1,-1.92%
21,CC1(C)CN=C(N2CCN(C3=NCC(C)(C)S3)CC2)S1,-6.29%
22,Cc1ccc(C2=NN(C(=O)C3CCCO3)C(c3ccco3)C2)cc1 (centres unmarked),-11.7%

row,Structure (SMILES),% Inhibition @ 10 uM
1,CCOc1ccc(C2c3c(oc4ccc(C)cc4c3=O)C(=O)N2c2ccccn2)cc1 (centres unmarked),0.415%
2,CCCCN(C)C(=O)Cn1c(=O)c2cccn2c2cccnc21,-4.46%
3,COc1ccc(CCNC(=O)C2CCN(c3ccc(N4CCOCC4)nn3)CC2)c(OC)c1,5.32%
4,Cc1cc(NC(=O)c2cnn(-c3ccccc3)c2-n2cccc2)no1,0.137%
5,CCc1ccccc1NC(=O)c1ccc([N+](=O)[O-])o1,2.22%
6,C=CCn1c(=N)n(CC(=O)c2ccc(Cl)c(Cl)c2)c2ccccc21,-0.999%
7,COc1ccc2[nH]cc(CCN3C(=O)C4CCCCC4C3=O)c2c1 (centres unmarked),-5.67%
8,COc1cc(-c2cc(C(=O)O)c3c(-c4ccc(Br)cc4)[nH]nc3n2)ccc1O,3%
9,Cc1cccc(NC(c2ccc(F)cc2)C2CCCC2=O)c1 (centres unmarked),3.48%
10,CC(=O)c1ccc(NC(=O)C23CCC(C)(c4nc5ccccc5nc42)C3(C)C)cc1 (centres unmarked),-0.473%
11,Fc1cccc(F)c1CN1CCN(c2ccccc2)CC1,-4.04%
12,COc1ccc(C(O)c2nc3ccccc3s2)cc1 (centres unmarked),5.66%
13,CC1(C)CC(=O)C2=C(C1)N(c1nc[nH]n1)C(N)=C(C#N)C2c1ccccc1Cl (centres unmarked),-10.2%
14,Cc1ccc(OCC(=O)N2CCCCC2)c(Br)c1,1.87%
15,COc1cccc(C(=O)Nc2cccc3cccnc23)c1OC,-5.51%
16,Cc1ccccc1Nc1nc(Cl)nc(N2CCOCC2)n1,2.62%
17,COC(=O)c1c(NC(=O)C2=C(C)C(=O)OC23CCCCC3)sc(C)c1C,-2.14%
18,COc1ccc(-c2noc(-c3ccc(Br)cc3)n2)cc1OC,2.76%
19,Cc1cccc(-c2noc(CN(C(=O)CCc3ccccc3)C(C)C)n2)c1,-2.45%
20,COc1cccc(C2CC(=O)N3CN(CCc4sccc4C)CSC3=C2C#N)c1 (centres unmarked),56.9%
21,CCCc1nc(N2CCCC2)c(C#N)c2c1CCCC2,5.3%
22,Cc1nn(-c2ccccc2)c(-n2cccc2)c1C(=O)N1CCC(C(=O)NC2CCCCCC2)CC1,-7.1%

row,Structure (SMILES),% Inhibition @ 10 uM
1,Cc1ccccc1-n1nc2c(c1NC(=O)Cc1ccccc1)CS(=O)(=O)C2,-0.195%
2,Cc1nc2sc3c(NCCc4ccccc4)ncnc3c2c2c1COC(C)(C)C2,5.3%
3,COc1cc(/C=C/c2nc(C#N)c(NCc3ccc(F)cc3)o2)cc(OC)c1OC,0.895%
4,N#CC1=C(N)Oc2cc(O)ccc2C1c1ccsc1 (centres unmarked),-1.18%
5,Cc1cc(C)n(-c2cc(Oc3ccc(C#N)cc3)nc(-c3ccccc3)n2)n1,2.33%
6,COc1ccc(C(=O)N2CCC(C(=O)Nc3ccc(C(N)=O)cc3)CC2)cc1OC,1.88%
7,O=C1C(=O)N(Cc2ccccc2)c2ccc(Br)cc21,3.03%
8,O=C(Cc1ccc(Cl)cc1)Nc1cccc(-c2nc3ncccc3o2)c1,-7.08%
9,O=C(O)c1ccc2c(c1)OCCOCCOCCO2,10.6%
10,COc1cc(CN2CCSCC2)cc(OC)c1OC,3.54%
11,CC1=C(C(=O)N2CCCCC2)C(c2ccc(C)cc2)n2c(nc3ccccc32)N1 (centres unmarked),-0.326%
12,CN(C)CCC/N=C/c1c(O)[nH]c2ccccc12,1.79%
13,CN(c1nnc(N)s1)C1CCCCC1,5.95%
14,CC(C)(C)C1CCc2c(sc3nnn(CCCN4C(=O)c5ccccc5C4=O)c(=O)c23)C1 (centres unmarked),-4.54%
15,CC1C2NC(=S)NC1(C)Oc1ccc(Br)cc12 (centres unmarked),-5.27%
16,C(=N\c1nc2ccccc2n1CCN1CCCCC1)/c1ccc2c(c1)OCO2,14.3%
17,CC1=C(C(=O)Nc2ccccc2F)C(c2ccc(N(C)C)cc2)C2=C(O)CCCC2=N1 (centres unmarked),-2.68%
18,CCc1ccc(S(=O)(=O)Nc2ccc(-c3nc4ccc(C)cc4s3)cc2)cc1,4.26%
19,CC(=O)Nc1ccc(CN2CCN(c3ccc(F)cc3)CC2)cc1,-0.828%
20,Cc1ccc(C2CC(C(F)(F)F)n3nc(C(=O)O)cc3N2)cc1 (centres unmarked),-6.02%
21,CC1CCc2c(sc3nnn(Cc4ccc(Cl)cc4)c(=O)c23)C1 (centres unmarked),3.87%
